# From PubChem BioAssay AID1347043 (National Center for Advancing Translational Sciences (NCATS), 2019)
# Among all 76,000 compounds or so, about 1,900 (2.5%) were called active. Inconclusive results, whose numbers are uncertain, are shown with a selection of clear calls. Calls follow the shape of the dose curve; as a rule, active = well fitted inhibition curve with a large enough effect; inconclusive = small, poorly fitted or top-dose-only effect; inactive = flat fitted curve, though single readings scatter. Potencies beside an inconclusive call are fits to weak or partial responses and may not hold up.
# Target: Luciferin 4-monooxygenase (Photinus pyralis) (UniProt P08659)
# UniProt P08659, sequence (P08659 whole entry, looked up): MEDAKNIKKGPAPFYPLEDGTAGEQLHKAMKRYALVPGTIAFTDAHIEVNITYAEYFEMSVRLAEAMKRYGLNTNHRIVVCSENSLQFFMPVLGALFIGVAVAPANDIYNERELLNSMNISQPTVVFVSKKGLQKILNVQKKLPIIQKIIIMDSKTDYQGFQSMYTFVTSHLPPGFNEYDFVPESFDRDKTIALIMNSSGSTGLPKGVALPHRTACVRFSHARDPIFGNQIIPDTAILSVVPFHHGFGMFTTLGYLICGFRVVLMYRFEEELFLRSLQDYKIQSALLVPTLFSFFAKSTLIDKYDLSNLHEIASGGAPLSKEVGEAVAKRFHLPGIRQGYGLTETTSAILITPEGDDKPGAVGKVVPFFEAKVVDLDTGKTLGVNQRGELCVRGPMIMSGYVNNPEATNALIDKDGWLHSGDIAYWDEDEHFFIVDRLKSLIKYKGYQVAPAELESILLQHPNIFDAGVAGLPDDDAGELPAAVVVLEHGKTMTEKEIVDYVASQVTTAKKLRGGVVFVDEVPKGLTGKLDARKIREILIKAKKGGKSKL
# Assay: Firefly luciferase inhibition profiling of diverse chemical library using quantitative high-throughput screening; also: nearly all actives have a fitted effect of over 65% in size
# Conditions: purified P. pyralis luciferase, luminescence, biochemical; activity change, negative = inhibition: at 115 µM (top of the series) unless noted
# Method in brief: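 Biochemical qHTS: compound (6-point titration) added to 10uM D-luciferin plus 10uM ATP in Tris acetate pH 7.5 buffer with Mg, Tween-20 and BSA, then purified enzyme at 10nM; light output imaged.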
# % is scaled to controls: 0 for no effect and ±100 for the full control effect; potency is read from the fitted curve at half-maximal effect; tags tell the direction and shape of the fitted curve.
SMILES,Potency,"activity change, negative = inhibition"
CCCN(C)c1nccnc1OC1CCN(C(=O)c2c(F)cccc2F)C1 (centres undefined),"inconclusive: 14.1 µM [inhibitor, full curve]",–
O=C(NCC1CCOCC1)Nc1ccc(Cl)cc1,"inconclusive: 56.2 µM [inhibitor, partial curve]",–
CCNC(=O)c1cc2n(n1)CC(c1ccc(Br)cc1)OC2 (centres undefined),"inconclusive: 44.7 µM [inhibitor, partial curve]",–
CN1C(=O)COC[C@@H]1[C@H](O)c1ccc(NC(=O)c2ccc(C(F)(F)F)cc2)cc1,"inconclusive: 100 µM [inhibitor, partial curve]",–
CNC(=O)CCn1ncc2cc(OCc3ccccc3-c3cccc(O)c3)ccc21,–,inconclusive: -34.5% [inhibitor] [at 172 µM]
O=C(CCc1conc1-c1cccc(F)c1)NCc1ccc(F)cc1,active: 44.7 µM,–
CCc1cccc(C)c1NC(=O)Cn1nc2n(c1=O)CCCCC2,–,inactive: -9.65%
Cc1cc2nc(CO[C@H]3CN(Cc4ccc5c(c4)OCO5)C[C@H]3F)[nH]c2cc1C,"inconclusive: 70.8 µM [inhibitor, partial curve]",–
O=C(c1ccc[nH]1)N1CCC(n2cc(-c3nc(-c4ccccc4)no3)nn2)CC1,"inconclusive: 44.7 µM [inhibitor, partial curve]",–
O[C@H]1[C@H](NCc2ccccc2)[C@H]2CO[C@H](O2)[C@@H]1Sc1ccccc1,–,inactive: 6.11% [at 172 µM]
O=C(NCC1CCN(c2cc(-c3ccc(F)cc3)[nH]n2)CC1)c1ccc2nc[nH]c2c1,"inconclusive: 50.1 µM [inhibitor, partial curve]",–
Cc1c(F)cccc1NC(=O)N1CCCC(Cn2c(C)nc3cccnc32)C1 (centres undefined),–,inactive: -3.89%
CCN1CCN(CCN2CC3(CCN(C(=O)c4ccc(C)nc4)CC3)OC2=O)CC1,–,inactive: 0.652%
CC(C)CCN1CCc2nc(C(=O)Nc3ccc(Cl)cc3)oc2CC1,"inconclusive: 89.1 µM [inhibitor, partial curve]",–
O=C(Nc1cnc(-c2ccc(C(F)(F)F)cc2)nc1)C1CCOC1 (centres undefined),active: 17.8 µM,–
Fc1ccc(Cc2nc3nccc(-c4ccccc4)n3n2)cc1,"inconclusive: 50.1 µM [inhibitor, partial curve, poor fit]",–
COc1cccc(CCC(=O)N2CCC(n3cc(-c4nc(-c5ccccc5)no4)nn3)C2)c1 (centres undefined),"inconclusive: 100 µM [inhibitor, single point]",–
Cc1ccc(-c2nnc3ccc(N4CCCC4)nn23)nc1,–,inactive: 0.996% [at 230 µM]
Cc1ccc(Nc2ccc3c(n2)CN(C)C(=O)CO3)c(C)c1,"inconclusive: 79.4 µM [inhibitor, partial curve, poor fit]",–
COc1ccc(S(=O)(=O)N2CCC(CC(=O)NCc3ccccc3)C2)cc1 (centres undefined),–,inactive: -10.5%
COc1ccc(C(=O)N2CCC3(CC2)CC(c2cccc(C(F)(F)F)c2)=NO3)cc1,–,inactive: -0.57%
CCn1cc(Cl)c(C(=O)N2CCCn3cc(-c4ccccc4)nc32)n1,"inconclusive: 50.1 µM [inhibitor, partial curve]",–

SMILES,Potency,"activity change, negative = inhibition"
O=C(NCCc1ccccc1)N1CCC(Oc2ccc(-c3noc(C4CC4)n3)cc2)C1 (centres undefined),"inconclusive: 50.1 µM [inhibitor, partial curve]",–
COc1ccc(NC(=O)c2ccc(-c3ncc4cnc(C5=CCOCC5)cn34)cc2)cn1,–,inactive: 12.5% [at 172 µM]
O=C(NCc1cnn(Cc2ccccc2)c1)c1ccc2oc(-c3cccc(F)c3)nc2c1,"inconclusive: 50.1 µM [inhibitor, partial curve]",–
Cc1nnn2c(C(=O)NCc3ccc(Cl)cc3)cccc12,–,inactive: -1.36% [at 172 µM]
CC(C)OCCCNC(=O)c1ccc2c(c1)N(S(C)(=O)=O)CC2,"inconclusive: 39.8 µM [inhibitor, partial curve]",–
COCCO[C@H]1C(=O)N(C2CCN(C(=O)CC(F)(F)F)CC2)[C@H]1c1ccncc1,"inconclusive: 44.7 µM [inhibitor, partial curve, poor fit]",–
CN1C[C@@H](NC(=O)CC(C)(C)CC(=O)O)C[C@H]1c1nc(-c2ccc3ccccc3c2)no1,"inconclusive: 89.1 µM [inhibitor, single point]",–
COc1ccc(C(=O)NCCn2ccn3nc(-c4ccc(C)cc4C)cc3c2=O)c(C)c1,active: 3.55 µM,–
c1ccc(-c2nnc([C@H]3CCN(Cc4ccco4)C3)o2)cc1,active: 50.1 µM,–
CN(Cc1cnc2ccccc2c1)C(=O)c1ccc(CCC(C)(C)O)cc1,–,inactive: 1.57%
COC[C@@H]1CCCN1Cc1cn(Cc2ccccc2)nc1-c1cc2ccccc2o1,active: 28.2 µM,–
COc1ccc(CN2C[C@H](O)C[C@H]2c2nc(-c3ccc4c(c3)OCO4)no2)c(OC)c1OC,"inconclusive: 50.1 µM [inhibitor, partial curve]",–
CCn1cc(-c2ccncc2)cc1C(=O)NCc1ccc(SC)cc1,"inconclusive: 44.7 µM [inhibitor, partial curve]",–
CCc1ccc(CNC(=O)c2ccc3c(c2)N(C)C2CCCCN2C3=O)cc1 (centres undefined),"inconclusive: 39.8 µM [inhibitor, partial curve, poor fit]",–
COc1ccc(/C=C/c2ccc3c(c2)C(=O)N2CC[C@H](NC(=O)CCC(=O)O)[C@H]2C(=O)N3)cc1,active: 6.31 µM,–
COc1cccc(-c2ccc3onc(C)c3n2)c1,"inconclusive: 100 µM [inhibitor, partial curve]",–
CC(C)(C)C(=O)N[C@H]1C[C@@H](Cc2cc(-c3ccccc3)on2)C1(C)C,"inconclusive: 50.1 µM [inhibitor, partial curve]",–
COc1ccc(-c2noc([C@@H]3C[C@H](NS(=O)(=O)c4cccs4)CN3C)n2)cc1,"inconclusive: 79.4 µM [inhibitor, partial curve, poor fit]",–
CCC(C)NC(=O)Cn1c(C)ccc(NC(=O)Nc2ccc(C)cc2)c1=O (centres undefined),active: 2 µM,–
COc1ccc(OC)c(NC(=O)C2(CCO)CCN(c3ncccn3)C2)c1 (centres undefined),–,inactive: -1.68%
C#CCNC(=O)c1nc(-c2ccc(Cl)cc2)c2ccccn12,active: 44.7 µM,–
COc1cccc(C(=O)NCCn2ccn3nc(-c4ccc(C)c(C)c4)cc3c2=O)c1,"inconclusive: 2.24 µM [inhibitor, full curve]",–
